According to PubChem BioAssay AID686978 (National Center for Advancing Translational Sciences (NCATS), 2013):
Hit rate of the full screen: of about 420,000 compounds, about 64,000 (15%) were called active. Inconclusive results, whose numbers are uncertain, are shown with a selection of clear calls. Calls come from the whole dose curve; as a rule, active = well fitted inhibition curve with a large enough effect; inconclusive = small, poorly fitted or top-dose-only effect; inactive = flat fitted curve, though single readings scatter. No potency is given beside an inconclusive call; the fits are too rough.

Assay: qHTS for Inhibitors of human tyrosyl-DNA phosphodiesterase 1 (TDP1): qHTS in cells in absence of CPT; note: nearly all actives have a fitted effect of over 55% in size
Settings: DT40 Tdp1-/- hTDP1 cells, no CPT, ATP luminescence, 48 h; activity change, negative = growth inhibition: at 46.2 µM (top of the series) unless noted
Summary of the method: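 Luminescent ATP content (CellTiter-Glo) served as the growth readout. Knockout chicken DT40 cells expressing human TDP1 were exposed to compounds without camptothecin for a minimum 48 hr at 37 °C.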
% is set by controls: 0 for no effect and ±100 for the full control effect; potency is the fitted concentration of half-maximal effect; tags give direction and shape of the fitted curve.

For `Cc1ccc(-c2noc(CN(C(=O)c3cccs3)C(C)C)n2)cc1`, which Potency is on record?
The Potency was inconclusive [inhibitor, single point].

With `CC(C)N(c1ccccc1)c1ccc(NC(=O)[C@@H]2O[C@H](CO)[C@@H](O)[C@H]2O)cc1` as the compound, how does the Potency read?
The Potency was inconclusive [inhibitor, partial curve].

With `CCC(Sc1nc2ccccc2s1)C(=O)Nc1cc(C)on1` (stereo not drawn) as the compound, how does the activity change, negative = growth inhibition read?
The activity change, negative = growth inhibition was inconclusive: -31.6% [inhibitor].

With `Cc1ccc(C(=O)N/N=C\c2ccc([N+](=O)[O-])s2)cn1` as the compound, how does the Potency read?
The Potency was active: 11.6 µM.

For `COc1ccc(C)cc1NC(C)C(=O)c1c[nH]c2ccccc12` (stereo not drawn), which Potency is on record?
Its Potency is inconclusive [inhibitor, single point].

Which Potency does the source give for `O=C(O)C[C@H](O)C[C@H](O)/C=C/c1c(C2CC2)nc2ccccc2c1-c1ccc(F)cc1` here?
The Potency was active: 1.88 µM.

With `CCN(CCCNC(=O)CCc1nc(-c2ccc(C)cc2)no1)c1cccc(C)c1` as the compound, how does the Potency read?
The Potency was inconclusive [inhibitor, single point].

For `Cc1ccc(C(=O)CN2C(=O)NC3(CCOc4ccccc43)C2=O)s1` (stereo not drawn), which Potency is on record?
The Potency was inconclusive [inhibitor, single point].

With `Cc1ccc(S(=O)(=O)N2CCC(CN3C(=O)c4cccc5cccc(c45)C3=O)CC2)cc1` as the compound, how does the Potency read?
The Potency was inconclusive [inhibitor, partial curve, poor fit].

For `O=C(C1=C[C@H](c2ccc(C(F)(F)F)cc2)C[C@H](OCCCCO)O1)N1CCN(Cc2ccc3c(c2)OCO3)CC1`, which Potency is on record?
The Potency was inconclusive [inhibitor, single point].

Which Potency does the source give for `CCOC(=O)c1cnc2c(ccc3ccccc32)c1NCCN(C)C` here?
Its Potency is inconclusive [inhibitor, single point].

With `COCCNC(=S)N/N=C/c1c(C)[nH]c2ccccc12` as the compound, how does the Potency read?
Its Potency is inconclusive [inhibitor, single point].

Which Potency does the source give for `CCN1C(=O)/C(=C\N(C(C)=O)c2ccccc2)OC1=S` here?
Its Potency is inconclusive [inhibitor, single point].

Which Potency does the source give for `COCC(=O)n1nc(-c2ccc(Cl)cc2)nc1NCc1ccc(F)cc1` here?
Its Potency is inconclusive [inhibitor, single point].

With `Cc1cccc(N(C)C(=O)Cn2cnc3nc4c(cc3c2=O)CCCC4)c1` as the compound, how does the “activity change, negative = growth inhibition” value read?
Its value is inactive: -20%.

For `Cc1cccc(CCNC(=O)C2CCN(S(=O)(=O)c3ccccc3)CC2)c1`, which Potency is on record?
Its Potency is inconclusive [inhibitor, single point].

For `COC(=O)c1ccc2nc(-c3ccc(F)cc3)c(Cc3ccccc3OC)n2c1`, which Potency is on record?
Its Potency is active: 18.4 µM.

With `Cc1cccc(CN2CCN(Cc3cnn(-c4ccccc4F)c3)CC2CCO)n1` (stereo not drawn) as the compound, how does the “activity change, negative = growth inhibition” value read?
Its value is inactive: -16%.

With `CC(CCc1ccccc1)NC(=O)CSc1n[nH]c(-c2ccccc2Cl)n1` (stereo not drawn) as the compound, how does the Potency read?
The Potency was inconclusive [inhibitor, single point].

Which “activity change, negative = growth inhibition” value does the source give for `COc1ccccc1CNC(=O)CN1CCC(n2cnc3cc(F)ccc32)CC1` here?
Its value is inactive: -29.6%.

Which Potency does the source give for `CCN1C(=NCCCCO)N[C@@H](c2cccc(F)c2)C(C(=O)OC)=C1C` here?
Its Potency is inconclusive [inhibitor, single point].

Which Potency does the source give for `CC1CCN(S(=O)(=O)N2CCC(C(=O)NCc3ccc(F)cc3Cl)CC2)CC1` here?
The Potency was inconclusive [inhibitor, single point].

For `CC(C)c1ncc(C(O)c2cccc3ccccc23)n1C` (stereo not drawn), which Potency is on record?
The Potency was inconclusive [inhibitor, single point].

With `O=C(Nc1ccc2c(c1)OCCO2)c1cncc(Br)c1` as the compound, how does the Potency read?
Its Potency is inconclusive [inhibitor, partial curve].

For `O=C(NCc1ccccn1)c1cc(-c2ccc(-c3ccccc3)cc2)nc2ccccc12`, which Potency is on record?
The Potency was active: 8.2 µM.

For `COc1ccccc1CNC(=O)C(NC(=O)c1ccc(C)cc1)C(C)C` (stereo not drawn), which Potency is on record?
Its Potency is inconclusive [inhibitor, single point].

With `COc1ccc([N+](=O)[O-])cc1NC(=O)Nc1ccc(OC)c(OC)c1` as the compound, how does the Potency read?
The Potency was inconclusive [inhibitor, single point].

Which Potency does the source give for `COc1cccc(CNC(=O)CCc2c(C)nn(-c3ccc(N4CCCC4)nn3)c2C)c1` here?
The Potency was inconclusive [inhibitor, single point].

Which Potency does the source give for `COc1cccc(C(O)c2nc(-c3ccc(OC)nc3)cs2)c1` (stereo not drawn) here?
The Potency was inconclusive [inhibitor, single point].

For `COc1cccc(N2CC(NC(=O)c3cccs3)CC2=O)c1` (stereo not drawn), which “activity change, negative = growth inhibition” value is on record?
The value was inactive: -7.63%.

With `O=S(=O)(NCC(c1ccco1)S(=O)(=O)c1cccs1)c1ccccc1` (stereo not drawn) as the compound, how does the “activity change, negative = growth inhibition” value read?
The value was inactive: -27.7%.

With `Cc1ccc(NC(=O)CNCc2ccc(Cl)cc2Cl)cc1S(=O)(=O)N(C)C` as the compound, how does the Potency read?
The Potency was active: 18.4 µM.

Which Potency does the source give for `Cc1cnc(-n2ncc(C(=O)NCc3ccncc3)c2C(C)C)nc1-c1ccc(F)cc1` here?
The Potency was inconclusive [inhibitor, single point].

Which Potency does the source give for `COc1ccc(OC(=O)c2cn(-c3cccc(OC)c3)c(=O)c3ccccc23)cc1` here?
The Potency was inconclusive [inhibitor, single point].

With `Cc1c(C(=O)N/N=C/c2ccccn2)nnn1-c1nonc1N` as the compound, how does the Potency read?
Its Potency is inconclusive [inhibitor, single point].

For `O=C(Cn1ncc(Cl)c(Cl)c1=O)NC(=O)NC1CCCCC1`, which Potency is on record?
Its Potency is active: 2.91 µM.

With `CC1=C(C(=O)N(C)C)CC(CC(=O)NC2CC2)C(=O)N1Cc1ccc(C(C)(C)C)cc1` (stereo not drawn) as the compound, how does the Potency read?
Its Potency is inconclusive [inhibitor, single point].

For `CCC1Sc2ccc(S(=O)(=O)CCC(=O)Nc3cc(C)ccn3)cc2NC1=O` (stereo not drawn), which Potency is on record?
The Potency was inconclusive [inhibitor, single point].

For `CC(/C=N/n1c(-c2ccc(Cl)cc2)n[nH]c1=S)=C\c1ccco1`, which Potency is on record?
Its Potency is inconclusive [inhibitor, single point].

With `Cc1cc(F)ccc1NC(=O)C1CCCN(C(=O)c2cnn(-c3ccccc3)c2-n2cccc2)C1` (stereo not drawn) as the compound, how does the Potency read?
The Potency was inconclusive [inhibitor, single point].

With `COc1cc(C(O)c2nc(-c3ccc4ccccc4c3)cs2)ccc1F` (stereo not drawn) as the compound, how does the Potency read?
The Potency was active: 20.6 µM.

For `N#CC1=C(N)OC2=C(C(=O)CCC2)C1c1cc2c(cc1Br)OCO2` (stereo not drawn), which “activity change, negative = growth inhibition” value is on record?
The value was inactive: -14.1%.

With `Cc1ccc(S(=O)(=O)N2CCC(C(=O)N3CCCCCCC3)CC2)cc1` as the compound, how does the Potency read?
The Potency was active: 20.6 µM.

With `NC(=S)Nc1ccc(Cl)cc1Cl` as the compound, how does the Potency read?
Its Potency is inconclusive [inhibitor, partial curve].

Which Potency does the source give for `NC(Cc1ccccc1)c1csc(Nc2cc(Oc3ccccc3)ncn2)n1` (stereo not drawn) here?
The Potency was active: 16.4 µM.

With `CCOC(=O)c1sc(NC(=O)CN(CC)CC)c(C(=O)OCC)c1C` as the compound, how does the Potency read?
Its Potency is inconclusive [inhibitor, single point].

With `CCSc1nnc2c3cc(CC)ccc3n(C)c2n1` as the compound, how does the Potency read?
The Potency was inconclusive [inhibitor, partial curve].

With `CC(=O)Oc1ccc(/C=C/c2nc3ccccc3c(=O)o2)cc1` as the compound, how does the “activity change, negative = growth inhibition” value read?
Its value is inactive: -3.76%.

For `COc1cccc(-c2cccc(NC(=O)C3CCN(Cc4ccon4)CC3)c2)c1`, which “activity change, negative = growth inhibition” value is on record?
The value was inactive: 2.22%.

With `Cc1ccc(-c2nc(=O)[nH]c3ccc(Br)cc23)cc1` as the compound, how does the Potency read?
The Potency was inconclusive [inhibitor, single point].

With `CCCc1nnc(NC(=O)CSc2nnc3c4ccccc4n(CC)c3n2)s1` as the compound, how does the Potency read?
Its Potency is inconclusive [inhibitor, single point].

Which Potency does the source give for `Cc1cccc(-c2nnc(SCC3CNC(=O)O3)n2-c2ccc(Cl)cc2)c1` (stereo not drawn) here?
Its Potency is inconclusive [inhibitor, single point].

With `COc1cccc(OCCCN2CCN(S(=O)(=O)c3ccc(NC(C)=O)cc3)CC2)c1` as the compound, how does the Potency read?
The Potency was inconclusive [inhibitor, partial curve].

For `COC(=O)c1cc(C(=O)c2cc(F)ccc2O)cn2c(=O)c3c(C)c(C)sc3nc12`, which “activity change, negative = growth inhibition” value is on record?
The value was inactive: -23.7%.

For `CCCC(=O)NC(=S)Nc1cccc(NC(=O)c2ccccc2Cl)c1`, which Potency is on record?
The Potency was inconclusive [inhibitor, single point].

For `COC(=O)[C@@]1(Cc2ccc(F)cc2)[C@H]2c3cc(C(=O)N4CCCC4)n(Cc4ccc(C)o4)c3C[C@H]2CN1C(=O)c1ccccc1`, which Potency is on record?
The Potency was inconclusive [inhibitor, single point].

For `COc1ccc2c(C)cc(SCC(=O)Nc3c(C)n(C)n(-c4ccccc4)c3=O)nc2c1`, which Potency is on record?
The Potency was inconclusive [inhibitor, partial curve].

With `COc1ccccc1CNc1ncnc2ccc(-c3ccccc3C#N)cc12` as the compound, how does the Potency read?
The Potency was inconclusive [inhibitor, single point].

For `CCc1ccc(CNC(=O)c2ccc(Cn3c(=O)c4cccn4c4cccnc43)cc2)cc1`, which Potency is on record?
The Potency was active: 0.461 µM.

Which Potency does the source give for `O=C1CC(c2ccc3ccccc3c2)NN1` (stereo not drawn) here?
The Potency was inconclusive [inhibitor, single point].

Which “activity change, negative = growth inhibition” value does the source give for `Brc1ccc(-c2nn3c(-c4ccco4)nnc3s2)o1` here?
Its value is inactive: -20.7%.

For `COc1ccc(NC(=O)CC2C(=O)N(CCc3ccccc3)C(=S)N2Cc2cccnc2)cc1` (stereo not drawn), which Potency is on record?
The Potency was inconclusive [inhibitor, single point].

Which Potency does the source give for `COCCn1c(SCC(=O)c2ccc(F)cc2)nnc1C(C)C` here?
Its Potency is inconclusive [inhibitor, single point].

Which Potency does the source give for `Cc1ccc(NC(=O)c2ccccc2NS(=O)(=O)c2ccc(F)cc2)cc1S(=O)(=O)N1CCCCC1` here?
The Potency was active: 11.6 µM.

For `COc1ccccc1NS(=O)(=O)c1ccc(O)c(C(=O)OCC(=O)N2c3ccccc3CC2C)c1` (stereo not drawn), which activity change, negative = growth inhibition is on record?
The activity change, negative = growth inhibition was inconclusive: -31.2% [inhibitor].

For `CC(C)NC(=O)C1CCCN(S(=O)(=O)c2ccc3c(ccn3C)c2)C1` (stereo not drawn), which “activity change, negative = growth inhibition” value is on record?
Its value is inactive: -19.1%.

For `CCOc1ccc(OCC)c(-c2c(=O)n(OCc3ccc(C(C)(C)C)cc3)c3ccccc3[n+]2[O-])c1`, which Potency is on record?
The Potency was active: 18.4 µM.

With `CCc1cccc(C)c1NC(=O)c1cc(CN2CCCC2)on1` as the compound, how does the “activity change, negative = growth inhibition” value read?
The value was inactive: -19.4%.
